# Measurements reported in the supplement of paper PMC11417369.
# The other results are listed elsewhere or left out.
# Tested on: PfHDP1 homeodomain (GST-tagged)
# Assay: gcPBM binding intensity (ln(normalized median fluorescence intensity)); higher = stronger DNA binding
# Method in brief: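 Probes on an Agilent 4 × 180k array were primer-extended, double-stranded and 36 bp long, taken from intergenic genomic regions, with negative controls added. GST-tagged P. falciparum DNA-binding domains from E. coli, about 25 μg on average, were applied to the array for 1 h in 1× PBS containing 1% milk, 0.2 mg/ml BSA, 0.5% salmon testes DNA and 0.03% Triton X-100. Binding intensity, obtained after Alexa488 anti-GST antibody detection and a 488 nm scan, is the highest Masliner-normalised natural-log median intensity across replicate spots of either probe orientation.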
row,Sequence,gcPBM binding intensity (ln)
1,TTAATATAATAAAATCGTACAAATAAAATATAAAAT [XGTACX_site8730],6.65
2,AAAAAAAAAAAAGATACACACAAAAATGGATATATA [CACACA_site7069],6.15
3,AACCAATATGAGTATACACACATAAATATAAATATA [CACACA_site5968],6.52
4,AAAAATGAGAAACACACACACATATATATATATATA [CACACA_site2228],9.28
5,TCTTTAAATCGAGTGTTAAATAATATAATATAAAAA [CACACA_negctrl_site1507],6.13
6,ATATATATATATCACCGTACTTATATAATAACATGA [XGTACX_site4398],9.08
7,ATAATATTCGAGTGTGCACACAAACATACATATATA [CACACA_site3396],11.1
8,ATACAGAAAAAAAACACACACACATAATATACATAC [CACACA_site1933],6.91
9,ATTTTTATTAAAATATGTACGTATTTTACTCATACA [XGTACX_site5330],6.55
10,ACAGATATATTTATTTGTACATATCACCAAAATGGA [XGTACX_site5644],6.21
11,TAATTATTCTATTAAGTGCATATATTTTTAAAAAGA,9.39
12,TTTTTTTTTTATTTTTGTACATATATTTCAGTATTA [XGTACX_site8396],6.38
13,ATAATATATATTAAACGTACATAAAATAATTATGGA [XGTACX_site1670],6.43
14,GTATGTATATATGTATGTACTTATGTATCATTATTA [XGTACX_site2438],6.12
15,TAATATTTATGTTAATGTACAAAAAAACAAAACAAA [XGTACX_site301],6.64
16,ATAAAAATACAGTTAACACACATGTGTATTTATATG [CACACA_site7727],7.21
17,GAAAACGTTTGAAGTTGTACATATGTATAAAAAGAA [XGTACX_site2304],7.74
18,TGTTATTTAAATAATTCTTTTTAAAAGATGAATTAT [CACACA_negctrl_site1226],6.46
19,ATGGTCTGTTAAAGATGTACTTTTTAAAAATAAACG [XGTACX_site2583],6.4
20,CTATTTGGGGGAAGAGTGCATGACATGAATATAAAA,8.41
21,AAAAGGAAGATATATACACACATACAAATATATATA [CACACA_site5236],6.81
22,ATAAATTTTTAAAAATATGAATTATGTAATTTGTGA [CACACA_negctrl_site1621],6.31

row,Sequence,gcPBM binding intensity (ln)
1,TTTTTTTTTTTTTTCACACACTAATAATATTATCAT [CACACA_site4417],6.56
2,CTATATTATAAATATACACACATATCTTAAGTATAA [CACACA_site3096],6.48
3,TTGATGTATACAATGTAGATTATTTAATATTTCAAC [CACACA_negctrl_site73],6.34
4,ATTAGTATTAGATGATGTACATTTATATTGAAATAT [XGTACX_site8537],6.6
5,CTTTTTGAAATATTAACACACATTTTGTTAATTAAT [CACACA_site4046],6.39
6,CACAGATAAATTAACACACACACACCCATATATATA [CACACA_site3960],6.94
7,ATAATATAACACAAATGTACAAAAAATAAATAAATA [XGTACX_site385],6.52
8,AACAAACACAGACACACACACACACCCAAATGATTA [CACACA_site2431],6.98
9,TATATATATACTTAATGTACATATATATATATATAT [XGTACX_site3102],9.26
10,CATACTCACCAACACACACACACACCCATATAGAAT [CACACA_site592],7.36
11,ATGTAAAATTAATATTGTACTTTTCCATCATGATAC [XGTACX_site2669],6.25
12,TATTATTTAATCAAATGTACATAGAAAATGTATGTA [XGTACX_site4433],6.21
13,TATATTAAAGGGGTTTCACACACATGTATAATTAAT [CACACA_site7950],6.58
14,CATATAATAAATAGATGTACAGACTATATATATATA [XGTACX_site6575],8.96
15,TATATATATATTTTTGCACACATTTTTTAAGGTACA [CACACA_site2145],10.3
16,TTTATATGATACACACGTACATATACACATATACAC [XGTACX_site8123],7.58
17,TATAATATTTATATAACACACATATAGATTTATTTA [CACACA_site6269],6.28
18,AATAGGAAAGATTTTGCATGTGATATAAGTAATTTT [TGCATGCA_site657],6.27
19,TACGTAGCCACACTAACACACACAAATATGCACAAT [CACACA_site8942],10
20,ATTAAATACATTAACACACACACAAATATGTACATA [CACACA_site7372],6.94
21,ATATTATATAATATACGTACATATATTATGCATAAA [XGTACX_site7895],7
22,AAAAAAAAAAAAAAAAGTACAAATAAAAAAAAAATA [XGTACX_site4814],6.33

row,Sequence,gcPBM binding intensity (ln)
1,ATAATTTGTGGACACACACACACACCGACATATATA [CACACA_site8718],6.91
2,TTGTTAATGGTACGAACACACATATAAAGATGCATA [CACACA_site2044],6.54
3,TTATTCACTTCTTTTTAAAAAAAAAAAAAAAAAAAA [CACACA_negctrl_site223],6.36
4,ATTTCGAATATTAAGTGTACAATATAAATATATAAA [XGTACX_site6674],6.64
5,TTATATGAATTTTAGATTTATAATACAAGAATATTC [CACACA_negctrl_site70],6.1
6,TATTATTCATAATTTATCTTTTAAATTAAATCACAA [GTGCAC_negctrl_site288],5.91
7,TATTATTGTCTTTCAAAAAAAAAAAAAAAAAAAAAA [CACACA_negctrl_site1242],6.11
8,TATTTATAATAGTGTACACAATTATAAACTGAATAT [CACACA_site6041],6.83
9,CAACATATATTAATATGTACATATATATAGATATAT [XGTACX_site4107],6.33
10,TTTTTTTCTGTGAGTGCATGTAATAAAATAAATTTA [TGCATGCA_site276],7.58
11,TGTTATTTTAAAAAAAAAATTATTAACTTAAAAAAA [CACACA_negctrl_site1641],5.81
12,TTCAAAAATATATAATGTACACAAATATAAAAGAAT [XGTACX_site1944],7.12
13,TATGTAAAAAATTTAACACACACATATATATATATA [CACACA_site8829],9.19
14,TTACTTAAGAAACACACACACAAAAAAAAAAAAAAA [CACACA_site946],6.35
15,ATCATAATCATAAAAAGTACAAACGATAAAATAAAT [XGTACX_site3832],7.09
16,CTTCTTTTGTGATAAAGTACAAATATTTTGAAATAT [XGTACX_site1156],6.46
17,ATAAATAAATAAATAAATATATATATGAAATAATGT [TGCATGCA_negctrl_site12],6.61
18,TTTTCTATAAGATTTGCACACAACTTATTCTATTAA [CACACA_site3752],10.6
19,AAAAAATATAAAACGAGTACATATATAATAAGCAAA [XGTACX_site1360],6.66
20,TTTCTTAAAATATAAAGTACTAAAATGAAAATATAT [XGTACX_site2173],6.47
21,AAATAAAGAAATATATGTACATATATATATATATAT [XGTACX_site5131],9.43
22,CATAATATTTGTGAAAGTACTTATTTTACAATAGGG [XGTACX_site5004],6.6

row,Sequence,gcPBM binding intensity (ln)
1,ATTATAGACAACTCTTTTTCTAAACTATTTTATTTT [CACACA_negctrl_site1754],6.35
2,TTTATTCTCCACACCCGTACACATTTTTTTTGCATA [XGTACX_site5615],7.6
3,AAAAAAAAAAAAAACACACACACACGCAGATATATA [CACACA_site6672],6.65
4,GCTAAACAATAGTTTGCACACAATTTAAATATATAT [CACACA_site193],10.3
5,AATGCACTATTTAAAAGTACACATAAGAAAAGCATA [XGTACX_site1739],7.88
6,AATATAATATAATGCACACATAAAAAAAAAAAAATC [CACACA_site1303],10.6
7,TTATATACATTAAATGAACACACATAAATAAATTAC [CACACA_site8927],6.48
8,AGTATAAATATATTATGTACATATATATTATACTTA [XGTACX_site2623],6.13
9,ATATATATATACATATGTACATATATATTTATACAT [XGTACX_site2463],8.53
10,TACACAGACGGACACACACACACACTAGAAAAAAAA [CACACA_site4435],6.81
11,AAAGAATTTGCATATACACACAAAAAAATAAATACA [CACACA_site4373],7.31
12,ATTTCTTTTACATTTACATGCAATGCTCTATAGATA [TGCATGCA_site62],7.64
13,ATTTTTTTTATGTATTATGCTTTTATATCCTTCATA [CACACA_negctrl_site1244],7.02
14,CTAAAAGAACATGTGTGTACTTATGTTCTCTTTTTT [XGTACX_site5983],6.04
15,AATAAAAAAAAAAAAAAAAAAAAAAAGACACTAAAA [CACACA_negctrl_site1075],5.73
16,CTTACCAAAAAACACACACACACAAAATATATAAAT [CACACA_site1870],6.9
17,TTATTTTTTAGTAGTACACACTTTTTGTACCTTTTA [CACACA_site4503],6.7
18,GACACCCATAAATATACACACGCACAACACAAAATA [CACACA_site8944],7.7
19,TTATTTTCTTTTTCTTGTACACACATAATATGGATG [XGTACX_site1481],6.82
20,TTGTTAATAAAAATATTGGAAAGTTTATAAAATTTT [CACACA_negctrl_site1487],6.11
21,ATAATATATATACAAACACACAATTGCGTCCACATT [CACACA_site8515],7.04
22,TATAATAAATGGACGGTGCGACATGACCATATGTGT [GTGCAC_site9476],6.77
